According to article PMC6919601, “Identification of Plasmodium dipeptidyl aminopeptidase allosteric inhibitors by high throughput screening” (PLoS ONE, 2019):
In all, about 110,000 compounds went through this assay and about 230 (0.21%) showed an effect of 50% or more. Some of the results follow.

Molecular target: DPAP1 (Plasmodium falciparum, UniProt Q8IIJ9)
Test: primary screen, percent inhibition; read by cleavage of a fluorogenic dipeptide substrate; higher = more effect of the substance
Parameters: species or system P. falciparum D10 trophozoite lysates; single well
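Note: 30 min substrate incubation versus DMSO and 10 µM JCP410 controls.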

Sequence of DPAP1 (Q8IIJ9 whole entry, looked up): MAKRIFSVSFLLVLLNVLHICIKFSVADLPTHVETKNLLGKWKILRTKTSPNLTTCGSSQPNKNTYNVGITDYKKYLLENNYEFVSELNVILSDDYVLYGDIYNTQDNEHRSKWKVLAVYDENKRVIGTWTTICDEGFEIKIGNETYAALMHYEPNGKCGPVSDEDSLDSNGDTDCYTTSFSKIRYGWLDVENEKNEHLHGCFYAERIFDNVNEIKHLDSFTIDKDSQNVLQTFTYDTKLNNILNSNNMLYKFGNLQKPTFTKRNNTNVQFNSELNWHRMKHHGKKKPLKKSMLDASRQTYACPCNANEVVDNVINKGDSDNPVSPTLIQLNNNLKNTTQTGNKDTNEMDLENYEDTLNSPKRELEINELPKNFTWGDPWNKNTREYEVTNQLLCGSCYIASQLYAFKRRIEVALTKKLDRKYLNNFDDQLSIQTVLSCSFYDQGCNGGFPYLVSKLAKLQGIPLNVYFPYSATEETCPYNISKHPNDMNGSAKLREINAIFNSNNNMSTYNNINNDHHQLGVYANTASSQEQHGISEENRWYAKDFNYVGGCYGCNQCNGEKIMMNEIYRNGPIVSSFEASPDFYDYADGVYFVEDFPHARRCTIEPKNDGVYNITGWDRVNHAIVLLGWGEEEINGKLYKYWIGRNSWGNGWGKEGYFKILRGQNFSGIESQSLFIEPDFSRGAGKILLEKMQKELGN

SMILES	% Inhibition @ 10 uM [%]
COc1ccc(C2C(C#N)=C(N)OC3=C2C(=O)CCC3)c(OC)c1OC (centres unmarked)	-4.75
Cc1cc2nc(O)c(O)nc2cc1S(N)(=O)=O	0.454
COc1cc(C(CC(=O)Nc2ccc(Cl)cn2)N2Cc3ccccc3C2=O)cc(OC)c1OC (centres unmarked)	-10.1
COc1ccc(C2C(C#N)=C(N)Oc3c2c(C)nn3-c2ccc(C)cc2)c(OC)c1 (centres unmarked)	-5.48
COc1ccc(OCCNC(=O)C(c2ccccc2)c2ccccc2)cc1	-2.19
COc1ccc(-c2ccc(=O)n(Cc3c(F)cccc3Cl)n2)cc1	0.718
Cc1ccc(S(=O)(=O)n2nc(-c3ccccc3)nc2NCc2ccc(F)cc2)cc1	6.84
CCN(CC)C(=S)NC(=O)/C=C/c1cccs1	1.44
Cc1ccccc1C1C=C(c2cccnc2)Nc2nc3ccccc3n21 (centres unmarked)	0.219
Cc1ccc(NC(=O)Cc2ccccc2)c(C)c1	3.47
Oc1ccccc1-c1nnco1	-3.21
O=C(O)C1C2C=CC(C2)C1C(=O)N1CCN(c2ccccc2)CC1 (centres unmarked)	-3.18
CCn1c(SCC(=O)c2ccccc2)nc2ccccc2c1=O	2.86
CC(C)COc1ccc(C(=O)N/C(=C/c2ccc3c(c2)OCO3)C(=O)O)cc1	3.86
Cc1c(Cl)cccc1N(CC(=O)N1CCC(C)CC1)S(C)(=O)=O	1.67
Cc1cc(C)c2c(CC(=O)NCc3ccc4c(c3)OCO4)coc2c1	1
COc1ccc(C(=O)Nc2nc(-c3nnn(-c4cc(C)cc(C)c4)c3C)ns2)cc1	1.8
CC(C)C[C@H](NC(=O)c1ccc(N2CCN(C)CC2)cc1)C(=O)N[C@@H](CCCN=C(N)N)C(N)=O	-3.04
Cc1nn(-c2ccccc2)c2c(=O)c(I)cccc12	-2.2
Cc1cccc(C(=O)N(Cc2ccccc2)C(C)C)c1	1.83
Cc1ccc2nc(-c3ccc4c(c3)OCO4)cc(C(=O)O)c2c1	-5.06
CCn1cc(C(=O)O)c(=O)c2cc(F)c(N3CCC4CCCN4C3)cc21 (centres unmarked)	-1.85
Cn1c(=N)n(CCOc2ccccc2Cl)c2ccccc21	-0.251
CCOc1ccc(CCNC(=O)c2cc(C3CC3)[nH]n2)cc1OCC	0.359
CN1C(=O)/C(=C/c2c[nH]c3ccccc23)S/C1=N/c1ccc(C(=O)O)cc1	0.606

SMILES	% Inhibition @ 10 uM [%]
CC1=CC(=C2C(=O)NC(=O)NC2=O)C=C(C(F)(F)F)N1Cc1ccccc1	20.6
COc1ccc(S(=O)(=O)NC2CCCCC2)cc1OC	-3.74
COc1ccc(/N=C(\C)c2c(C)nn(-c3ccccc3)c2O)c(OC)c1	-2.68
N#CC1=C(N)Oc2[nH]nc(-c3cccc4ccccc34)c2C1c1ccccc1F (centres unmarked)	4.09
COc1cc(/C=C2\SC(c3ccccc3)=NC2=O)cc(Cl)c1O	4.3
Cc1nc2ncnn2c(C)c1Cl	2.62
Cc1cccc(NC(=O)CN2C(=O)N/C(=C/c3ccc(OCC(C)C)cc3)C2=O)c1	6.65
CCOc1ccc(-n2nc3ccc(NC(=O)c4cc(OC)cc(OC)c4)cc3n2)cc1	0.214
O[S+]1c2ccccc2Nc2cc(C(F)(F)F)ccc21 (centres unmarked)	2.51
CSc1ncc2c(O)c3c(nc2n1)N(C)CCC3	3.8
COc1ccc(OC)c(N(CC(=O)NCc2ccco2)S(C)(=O)=O)c1	-3.75
COCCCNC(=O)c1ccc(CSc2nc3ccncc3n2Cc2ccc(C)cc2)cc1	-0.637
COCCNC(=O)Cn1cnc2sc(C)c(S(=O)(=O)N3CCC(C)CC3)c2c1=O	2.06
Cc1ccc(S(=O)(=O)N2CCC(C(=O)Nc3ccc(O)cc3)CC2)cc1	-2.37
O=C(NCCOc1ccccc1)C(=O)c1c[nH]c2ccccc12	1.03
COc1cccc(C2C3=C(O)CC(C)(C)CC3=NC(C)=C2C(=O)Nc2cccc(F)c2)c1 (centres unmarked)	-4.76
O=C(NCCN1CCCC1)C1CCC(CNS(=O)(=O)c2ccccc2)CC1 (centres unmarked)	-6.4
CCCN1C(=O)C(NC(=O)c2cccnc2)(C(F)(F)F)N=C1c1ccccc1 (centres unmarked)	3.54
C=CCOc1ccc(/C=C2/C(=N)N3C(SC)=NSC3=NC2=O)cc1OC	4.79
CCOc1ccccc1NC(=O)CN(c1ccc(F)cc1)S(C)(=O)=O	-1.43
CCOc1c(Br)cc(/C=C2N=C(/C=C/c3ccccc3)OC/2=O)cc1OC	6.42
CC1=C(C#N)C(NS(=O)(=O)c2ccccc2)(C(F)(F)F)C(=O)N1 (centres unmarked)	-3.53
CCOc1ccccc1NC(=O)c1ccc(C)o1	2.72
Cc1ccc(Cn2c(=O)c3cccnc3n(Cc3ccc(C)cc3C)c2=O)cc1	-9.16
O=C(Nc1ccccn1)c1sc2cccc(Cl)c2c1Cl	2.15

SMILES	% Inhibition @ 10 uM [%]
CN(Cc1ccccc1)C(=O)CCn1ccc2cc(S(=O)(=O)N3CCCCC3)ccc21	10.1
Cc1nn(-c2ccc(F)cc2)c(O)c1/C=N/c1cccc(O)c1	-4.41
O=C(O)c1nn2c(C(F)(F)F)cc(-c3cccs3)nc2c1Cl	3.01
Cc1nc2ccc(S(=O)(=O)N(C)CC(=O)NC(C)c3ccccc3)cc2s1 (centres unmarked)	-4.04
OCCN(CCO)c1ncnc2c1cnn2-c1cccc(Cl)c1	-3.02
Cc1nc2c(-c3ccc(F)cc3)c(C)nn2c(C)c1CCC(=O)NCCN1CCOCC1	1.05
Nc1nc2ccccc2n1CCc1ccccc1	0.472
Cc1ccccc1Cn1c(=O)n(CC(=O)NCc2ccco2)c(=O)c2sccc21	2.4
CCC[C@H](NC(=O)C1(NC(=O)c2cc3ccccc3s2)CCCCC1)C(=O)c1nc2ccccc2o1	6.03
CCOc1ccc2nc(SCC(=O)Nc3ccc(OC)cc3OC)c(C#N)cc2c1	0.658
CCOc1ccccc1-c1nnc(CS(=O)(=O)c2ccccc2)o1	14.8
CC1CCCN(c2nc3c(c(=O)n(C)c(=O)n3C)n2CC(=O)c2ccc(Br)cc2)C1 (centres unmarked)	-3.09
O=C(Nc1cccc(-c2nc3ccccc3s2)c1)c1ccco1	3.83
CC1(C)COC(c2ccccc2)c2ccccc21 (centres unmarked)	-3.16
Brc1ccc(Nc2nc3c(s2)CCCC3)cc1	10.7
Cc1cccc(-c2nc3s/c(=C\c4ccccc4F)c(=O)n3n2)c1	-4.85
c1ccc(CN2CCN(CCCNc3ccc4nncn4n3)CC2)cc1	-6.07
CN(C)c1ccc(C2(CC(=O)Nc3ccc(Br)cc3)C(=O)c3ccccc3C2=O)cc1	-1.02
Cc1ccc(-c2csc(-c3nnn(-c4cccc(Cl)c4)c3N)n2)cc1	-2.41
COc1ccc(CN2CSC3=C(C#N)C(c4ccc(C)cc4)CC(=O)N3C2)cc1 (centres unmarked)	43.8
COc1ccccc1-c1nn(CCC#N)c2nc(C(F)(F)F)cc(C3CC3)c12	-1.03
O=c1c2c3c(sc2n2c(S)nnc2n1Cc1ccccc1)CN(Cc1ccccc1)CC3	-3.33
CCOc1ccc(-c2nc(C#N)c(N3CCN(Cc4ccccc4)CC3)o2)cc1	-3.23
CC(=O)N1CCN(C2CCC(c3ccccc3)CC2)CC1 (centres unmarked)	1.88
COC(=O)C1=C(C)N=c2s/c(=C/c3ccco3)c(=O)n2C1/C=C/c1ccccc1 (centres unmarked)	9.47

SMILES	% Inhibition @ 10 uM [%]
Nc1ccc2c(c1)CC(=O)c1ccccc1S2	-0.231
CCCOc1ccc(C2C3=C(O)CCCC3=NC(C)=C2C(=O)Nc2ccccc2OC)cc1 (centres unmarked)	6.29
COc1ccc(Cl)c(Cn2c(NCC(C)O)nc3c2c(=O)n(C)c(=O)n3C)c1 (centres unmarked)	-3.24
Cc1cccc(NC(=O)CCCCCN2C(=O)c3ccccc3C2=O)c1	-3.92
COc1ccc(-c2noc(CNC(=O)c3cc(OC)c(OC)cc3OC)n2)cc1	0.276
CCO/C(O)=C1/C(C)=NC2=C(C(=O)CCC2)C1c1ccc(C(=O)OC)cc1 (centres unmarked)	-6.74
COc1ccc2[nH]c(C(=O)O)cc2c1	3.66
CCc1ccc(C2CC(c3cccc(OC)c3)n3nc(N)nc3N2)cc1 (centres unmarked)	-7.38
CC(=O)N1CCC(N(Cc2ccco2)C(=O)NC23CC4CC(CC(C4)C2)C3)CC1	-0.35
COc1cccc(-c2cc(N)n(S(=O)(=O)Cc3ccccc3)n2)c1	5.77
COC(=O)C(Cc1ccccc1)NC(=O)C(C)(C)C (centres unmarked)	-1.74
COCCNS(=O)(=O)c1ccc2[nH]c(O)nc2c1	2.42
COc1ccc2nc(N3C(=O)C(O)=C(C(=O)c4cc5ccccc5o4)C3c3ccc(C)o3)sc2c1 (centres unmarked)	5.3
Clc1ccccc1C1C=C(c2cccnc2)Nc2ncnn21 (centres unmarked)	1.73
CCCc1nc(SC)ncc1C(=O)NC(C)C12CC3CC(CC(C3)C1)C2 (centres unmarked)	0.107
Cc1sc2c(c1C)CN(Cc1ccco1)CN2C(=O)c1ccccc1	-7.15
COc1ccc(CC(=O)NCc2cn3cccc(C)c3n2)cc1	-1.72
CC(C(=O)N1CCN(c2ccccn2)CC1)n1ccc2cc(S(=O)(=O)N3CCCCCC3)ccc21 (centres unmarked)	-0.846
O=C(NCc1ccco1)c1cnn2c3c(cnc12)CCCCC3	2.82
CN(C)CCCN1C(=O)CSC1c1ccc(Cl)cc1 (centres unmarked)	-3.44
CCOc1ccc(CCNC(=O)C2CCCN(S(=O)(=O)c3c(C)n[nH]c3C)C2)cc1OCC (centres unmarked)	2.39
COc1ccccc1CNC(=O)CCc1nc2cccnc2n1Cc1cccs1	1.62
CCC(Cc1ccccc1)NC(=O)CN(C)S(=O)(=O)c1ccc2nc(C)sc2c1 (centres unmarked)	-2.25
